From USRE50631E1, “ROR1 antibody immunoconjugates” (VelosBio Inc., priority 2017, dated 2025)
Several values for one entry are separate records, joined by “and”; a condition that tells them apart may be missing. Equal values may be shown once. Entries after “also recorded” stand apart in the source; their conditions may differ.

Tests used:
DU4475 = test: Cytotoxicity in vitro (CellTiter-Glo viability), DU4475; format: cell-based, human; conditions: DU4475 (TNBC), 72 hours
NCI-H929 = test: Cytotoxicity in vitro (CellTiter-Glo viability), NCI-H929; format: cell-based, human; conditions: NCI-H929 (MM), 72 hours
HCC1806 = test: Cytotoxicity in vitro (CellTiter-Glo viability), HCC1806; format: cell-based, human; conditions: HCC1806 (TNBC)
A549 = test: Cytotoxicity in vitro (CellTiter-Glo viability), A549; format: cell-based, human; conditions: A549 (NSCLC), 72 hours
MDA-MB-231 = test: Cytotoxicity in vitro (CellTiter-Glo viability), MDA-MB-231; format: cell-based, human; conditions: MDA-MB-231 (TNBC)
BR5015 = test: Human TNBC PDX model BR5015 (low ROR1 expression); format: in vivo, mouse; conditions: for mean TGI: 17 days
Excerpt: Two PDX models displaying different levels of ROR1 expression were selected for this study. ROR1 expression was based on the level of ROR1 staining via IHC of a tissue microarray representing triplicate cores of TNBC PDX models. The mean level of ROR1 expression as assessed by % ROR1-positive cells were 58% and 38% for human TNBC cells BR5011 and BR5015, respectively.
NOD/SCID nude mice were subcutaneously injected with BR5011 or BR5015 cells in the mammary fat pad. When palpable tumors were observed (mean tumor volume approximately 150 mm^3 for BR5011 and approximately 250 mm^3 for BR5015), animals were randomized into three groups. The groups for the BR5011 PDX model were vehicle control, 1 mg/kg ADC-A IV q4d, and 5 mg/kg ADC-A IV q4d. The groups for the BR5015 PDX model were vehicle control, 1 mg/kg ADC-A IV qw, and 5 mg/kg ADC-A IV qw. Mean TGI was calculated as described above.

Jeko-1 MCL xenograft = Jeko-1 MCL xenograft mouse model (study 2); format: in vivo; conditions: 5 mg/kg IV Q4D, 3 weeks
Procedure: Jeko-1 (MCL) cells were engrafted subcutaneously into mice, and the engrafted mice were randomized into five groups, 9 mice/group. […] The mice were dosed IV q4d.

OCI-Ly18 = test: Cytotoxicity in vitro (CellTiter-Glo viability), OCI-Ly18; format: cell-based, human; conditions: OCI-Ly18 (DLBCL), 72 hours
[1] = tested on: RS9373 cells (patient-derived xenograft); test: ROR1-positive Richter's syndrome PDX mouse model (chemotherapy-resistant); format: in vivo
Procedure: NSG mice were subcutaneously injected in both flank areas with RS9373 cells (patient-derived xenograft or PDX) in a cell suspension in matrigel. When palpable tumors were observed (at approximately 50 mm^3), the animals were randomized into three groups, 4 mice/group. The treatment groups were vehicle control, 2.5 mg/kg ADC-A IV q4d, and 5 mg/kg ADC-A IV q4d. The mice received 3 total treatments and tumors were harvested 24 hours after the last treatment. Mean tumor growth inhibition (TGI) was calculated utilizing the following formula: […]
With most tumor types, heterogenous ROR1 expression is observed at the intra-tumoral level.

SAOS = test: Cytotoxicity in vitro (CellTiter-Glo viability), SAOS; format: cell-based, human; conditions: SAOS (OS), 72 hours
HCC1187 = test: Cytotoxicity in vitro (CellTiter-Glo viability), HCC1187; conditions: read-out: EC50 (nM), cytotoxicity in vitro; HCC1187 (TNBC), 96 hours (values marked *)
Procedure: (§1) ROR1 binding by these conjugates was tested in cell culture to define the potency of various linker-cytotoxic agent combinations. Three different types of cancer cell lines were tested: B-lymphoma cell-lines TMD-8, HBL-1, and DOHH2; triple negative breast cancer cell lines HCC1187, MDA-MB-468, Bt549; and ovarian cancer cell lines A2008, TOV112D, JHOM1, and SKOvr3.
(§2) Cells were cultured in log phase growth and distributed into 96-well plates. Each cell line was plated at a slightly different cell density, ranging from 5×10^3 to 50×10^4 cells/well. Cells in duplicate were incubated with 3-fold serial dilution of a particular immunoconjugate (10, 3.33, 1.11, 0.37, 0.12, 0.041, 0.014, and 0.0045 μM) for 72 hours at 37° C. and 5% CO2. After treatment, cells were incubated with an equal volume of CellTiter-Glo® reagent (Promega Inc.) for 15 minutes at room temperature and viability was determined by a luminometer. Curves and EC50 values were generated in GraphPad Prism using a sigmoidal dose response non-linear regression fit.
Cells were grown and distributed into 96-well plates as described in Example 5. […] After treatment, cell viability was determined as described in Example 5. Cell surface ROR1 expression was assessed by quantitative flow cytometry and ROR1 expression was characterized as MFI>30 or MFI<30 (MFI: mean fluorescent intensity).

A2780 = test: Cytotoxicity in vitro (CellTiter-Glo viability), A2780; format: cell-based, human; conditions: A2780 (Ovarian), 72 hours
OCI-Ly19 = test: Cytotoxicity in vitro (CellTiter-Glo viability), OCI-Ly19; format: cell-based, human; conditions: OCI-Ly19 (DLBCL), 72 hours
U2932 = test: Cytotoxicity in vitro (CellTiter-Glo viability), U2932; format: cell-based, human; conditions: U2932 (DLBCL), 72 hours
OPM2 = test: Cytotoxicity in vitro (CellTiter-Glo viability), OPM2; format: cell-based, human; conditions: OPM2 (MM), 72 hours
Hs578T = test: Cytotoxicity in vitro (CellTiter-Glo viability), Hs578T; format: cell-based, human; conditions: Hs578T (TNBC), 72 hours
DOHH2 = conditions: read-out: EC50 (nM), cytotoxicity in vitro; DOHH2 (DLBCL), 96 hours (values marked *)
Procedure: as §1, §2
Cells were grown and distributed into 96-well plates as described in Example 5. Cells in duplicate were incubated with 3-fold serial dilution of a particular immunoconjugate (660, 220, 73.3, 24.4, 8.14, 2.71, 0.91, and 0.3 nM) for 72 hours at 37° C. and 5% CO2. In some experiments, cells were incubated with an immunoconjugate for 96 hours instead of 72 hours (values highlighted with “*”). After treatment, cell viability was determined as described in Example 5. Cell surface ROR1 expression was assessed by quantitative flow cytometry and ROR1 expression was characterized as MFI>30 or MFI<30 (MFI: mean fluorescent intensity).

B1: ADC-A: Ab1 conjugated via MAL (mc)-VC-PAB linker to MMAE (conjugate)
heavy: QVQLQESGPGLVKPSQTLSLTCTVSGYAFTAYNIHWVRQAPGQGLEWMGSFDPYDGGSSYNQKFKDRLTISKDTSKNQVVLTMTNMDPVDTATYYCARGWYYFDYWGHGTLVTVSS[skipping human IgG1 constant region]
light: DIVMTQTPLSLPVTPGEPASISCRASKSISKYLAWYQQKPGQAPRLLIYSGSTLQSGIPPRFSGSGYGTDFTLTINNIESEDAAYYFCQQHDESPYTFGEGTKVEIKRTVAAPSVFIFPPSDEQLKSGTASVVCLLNNFYPREAKVQWKVDNALQSGNSQESVTEQDSKDSTYSLSSTLTLSKADYEKHKVYACEVTHQGLSSPVTKSFNRGEC
EC50 (DU4475): 248 nM | EC50 (NCI-H929): 179 nM | EC50 (HCC1806; 72 hours): 38.1 nM | EC50 (HCC1806; 96 hours (values marked *)): 13.4 nM | EC50 (A549): 53.4 nM | EC50 (MDA-MB-231; 72 hours): 106 nM | EC50 (MDA-MB-231; 96 hours (values marked *)): 58.4 nM and 46.7 nM | mean TGI (BR5015; 1 mg/kg): 22% at 1 mg/kg; | mean TGI (BR5015; 5 mg/kg): 75.6% at 5 mg/kg. | tumor response (BR5015; 1 or 5 mg/kg ADC-A): Tumor regression was observed | tumor growth (Jeko-1 MCL xenograft): caused tumor regression | EC50 (OCI-Ly18): 95 nM | mean TGI ([1]; 2.5 mg/kg IV q4d): 78% at 2.5 mg/kg; | tumor response ([1]; 5 mg/kg ADC-A, 20-30% of intra-tumoral cells ROR1-positive): complete and sustained regressions were observed in all tumors; also recorded: complete and sustained tumor regressions were observed | mean TGI ([1]; 5 mg/kg IV q4d): 90% at 5 mg/kg. | EC50 (SAOS): 26.3 nM | EC50 (HCC1187): 2.3 nM | EC50 (A2780): 64 nM | EC50 (OCI-Ly19): 199 nM | EC50 (U2932): 176 nM | EC50 (OPM2): 123 nM | EC50 (Hs578T): 22.9 nM | EC50 (DOHH2): 48.3 nM
